Among all 420,000 compounds or so, about 50,000 (12%) were called active. The shares of active, inactive and inconclusive entries below differ from those in the screen. Calls come from the whole dose curve; as a rule, active = well fitted inhibition curve with a large enough effect; inconclusive = small, poorly fitted or top-dose-only effect; inactive = flat fitted curve, though single readings scatter. No potency is given beside an inconclusive call; the fits are too rough.
Assay: qHTS for Inhibitors of human tyrosyl-DNA phosphodiesterase 1 (TDP1): qHTS in cells in presence of CPT; note: nearly all actives have a fitted effect of over 55% in size
Conditions: chicken DT40 Tdp1-/-;hTDP1 cells + 20 nM CPT, ATP luminescence, 48 h; series mostly up to 46.2 µM
How it was run: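 Cell growth measured by CellTiter-Glo luminescence after a minimum 48 h, 37 C compound exposure with 20 nM CPT in Tdp1-knockout DT40 cells stably expressing hTDP1, seeded 400/well; qHTS titration format.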
Potency is the fitted concentration of half-maximal effect; tags give direction and shape of the fitted curve.

**Q.** For `CC(=O)c1c(N2CCN(c3cccc(Cl)c3)CC2)nc(=S)n(-c2ccccc2)c1C`, which Potency is on record?
**A.** inconclusive [inhibitor, single point]

**Q.** For `O=C(COCC(=O)N1CCOCC1)N1CCOCC1`, which Potency is on record?
**A.** inactive

**Q.** With `COc1ccccc1NS(=O)(=O)c1ccc2oc(SCc3ccc(F)cc3)nc2c1` as the compound, how does the Potency read?
**A.** active: 16.4 µM

**Q.** With `CC(C)=CCC12Oc3cc(O)ccc3C1(O)Oc1cc(O)c([C@H]3C=C(C)CC(c4ccc(O)cc4O)[C@H]3C(=O)c3ccc(O)cc3O)c(O)c1C2=O` (stereo not given in full) as the compound, how does the Potency read?
**A.** inconclusive [inhibitor, single point]

**Q.** Which Potency does the source give for `CC1CC(C)(C)CC2(C1)NC(=O)N(CC(=O)N1CCN(Cc3ccc(C#N)cc3)CC1)C2=O` (stereo not given) here?
**A.** active: 8.2 µM

**Q.** Which Potency does the source give for `CCOc1ccc(S(=O)(=O)N2CCCCC2)cc1NC(=O)Cc1ccccc1` here?
**A.** inconclusive [inhibitor, partial curve]

**Q.** With `CCO[C@H]1OC(C(=O)N2CCOCC2)=C[C@@H](c2ccc(Br)cc2)[C@@H]1CCCO` as the compound, how does the Potency read?
**A.** inconclusive [inhibitor, single point]

**Q.** For `Cc1ccccc1NC(=O)N1CCCC1C(=O)NCc1cccs1` (stereo not given), which Potency is on record?
**A.** inactive

**Q.** Which Potency does the source give for `CCOc1ccc(C2c3cc(OCC)c(OCC)cc3CC(=O)N2c2ccc(C(=O)O)cc2)cc1OCC` (stereo not given) here?
**A.** inactive

**Q.** For `CC1=NN(C(N)=S)C(=O)C1N=Nc1ccccc1C` (stereo not given), which Potency is on record?
**A.** active: 1.64 µM

**Q.** With `COc1ccc(C(=O)Nc2ccc(C)c(S(=O)(=O)N3CCOCC3)c2)cc1S(=O)(=O)N1CCCC1` as the compound, how does the Potency read?
**A.** active: 20.6 µM

**Q.** With `Cn1cnnc1SCC(=O)NN1C(=O)NC(C)(c2ccccc2)C1=O` (stereo not given) as the compound, how does the Potency read?
**A.** inactive

**Q.** Which Potency does the source give for `CCc1ccc(C(=O)COC(=O)C(Cc2c[nH]c3ccccc23)NC(=O)c2ccc(Br)cc2)cc1` (stereo not given) here?
**A.** inactive

**Q.** With `Cc1ccc(-n2cc(CN(C)Cc3ncc[nH]3)c(-c3cccc(C)c3)n2)cc1` as the compound, how does the Potency read?
**A.** inconclusive [inhibitor, single point]

**Q.** Which Potency does the source give for `COc1ccc(OC)c(C(=O)NC2CC(C)(C)Cc3c2cnn3-c2ccccc2)c1` (stereo not given) here?
**A.** inconclusive [inhibitor, single point]

**Q.** With `CCCSc1nc(C)cc(C)c1S(=O)(=O)c1ccccc1C` as the compound, how does the Potency read?
**A.** active: 16.4 µM

**Q.** For `COc1ccccc1N1CCN(c2ncnc3c2cnn3C)CC1`, which Potency is on record?
**A.** inconclusive [inhibitor, single point]

**Q.** For `CC(C)(C)c1ccc(OCc2ccc(C(=O)N3CCOCC3)o2)cc1`, which Potency is on record?
**A.** inconclusive [inhibitor, single point]

**Q.** With `Oc1ccc(/C=N/N(Cc2ccccc2)c2ccccc2)c(O)c1O` as the compound, how does the Potency read?
**A.** active: 25.9 µM

**Q.** With `CCOc1ccc(CCNC(=O)CS(=O)(=O)Cc2nc(-c3cccc(OC)c3)oc2C)cc1` as the compound, how does the Potency read?
**A.** inconclusive [inhibitor, single point]
